In the supplement of paper PMC8007513:
Where a name gives a salt, the structure may show the parent alone. ± gives the standard error. In all, about 1,300 compounds went through this assay and about 130 (10%) showed an effect of 50% or more. Only a part is listed here, and it is no random draw.

Test system: Trichoderma virens ATCC 9645
Experiment: growth yield (OD600) with compound + IPBC relative to untreated control; higher = less growth inhibition
Settings: compound concentration: 100 uM, IPBC concentration: 200 ng/ml
Procedure, shortened: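 For each 96-well plate, 100 μl aliquots were prepared with Trichoderma virens ATCC 9645 spores suspended at 15,000 spores ml^−1 in potato dextrose broth. The spores had been harvested from potato dextrose agar plates after 7 days. Library compounds were present at 100 μM final, some wells also receiving a biocide at 200 ng ml^−1, and plates were grown at 30 °C with OD600 read on a BioTek EL800 at 40 h and 72 h. Reported growth, relative to the control lacking both agents, is the mean of duplicate screens.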

SMILES | growth yield (40 h) [%] | growth yield (72 h) [%]
C[C@]12CCC(=O)C=C1CC[C@@H]1[C@@H]2C(=O)C[C@]2(C)C(=O)CC[C@@H]12 [Adrenosterone] + CCCCNC(=O)OCC#CI [3-iodo-2-propynyl butylcarbamate (IPBC)] | 83.7 ± 1.4 | 90 ± 1.5
CN(C)C(=O)C(CCN1CCC(O)(c2ccc(Cl)cc2)CC1)(c1ccccc1)c1ccccc1 [Loperamide hydrochloride] + CCCCNC(=O)OCC#CI [3-iodo-2-propynyl butylcarbamate (IPBC)] | 68.9 ± 0.95 | 99.3 ± 1.8
CC(C(=O)O)c1ccc2c(c1)[nH]c1ccc(Cl)cc12 (stereo not drawn) [Carprofen] + CCCCNC(=O)OCC#CI [3-iodo-2-propynyl butylcarbamate (IPBC)] | 33.2 ± 0.16 | 68.3 ± 1.1
Cc1cccc(C)c1NC(=O)C(C)N (stereo not drawn) [Tocainide hydrochloride] + CCCCNC(=O)OCC#CI [3-iodo-2-propynyl butylcarbamate (IPBC)] | 103 ± 7.6 | 103 ± 4.8
CC(=O)NCCCS(=O)(=O)O [Acamprosate calcium] + CCCCNC(=O)OCC#CI [3-iodo-2-propynyl butylcarbamate (IPBC)] | 102.9 ± 0.32 | 94.3 ± 2.4
CCOC(=O)O[C@]1(C(=O)COC(=O)CC)CC[C@H]2[C@@H]3CCC4=CC(=O)C=C[C@]4(C)[C@H]3[C@@H](O)C[C@@]21C [Prednicarbate] + CCCCNC(=O)OCC#CI [3-iodo-2-propynyl butylcarbamate (IPBC)] | 110 ± 10 | 109 ± 4.5
CC(C)(C)NCC(O)COc1cccc2c1CCC(=O)N2 (stereo not drawn) [Carteolol hydrochloride] + CCCCNC(=O)OCC#CI [3-iodo-2-propynyl butylcarbamate (IPBC)] | 81.3 ± 1.6 | 89.9 ± 1.6
C=C1c2c(Cl)ccc(O)c2C(=O)C2=C(O)[C@]3(O)C(=O)C(C(N)=O)=C(O)[C@@H](N(C)C)[C@@H]3[C@@H](O)[C@H]12.O=C(O)c1cc(S(=O)(=O)O)ccc1O [Meclocycline sulfosalicylate] + CCCCNC(=O)OCC#CI [3-iodo-2-propynyl butylcarbamate (IPBC)] | 57.2 ± 7.3 | 84.1 ± 9.4
COc1ccc2c(c1)c(CC(=O)O)c(C)n2C(=O)c1ccc(Cl)cc1 [Indomethacin] + CCCCNC(=O)OCC#CI [3-iodo-2-propynyl butylcarbamate (IPBC)] | 73.4 ± 3.8 | 94.39 ± 0.21
Nc1nc2ccc(OC(F)(F)F)cc2s1 [Riluzole hydrochloride] + CCCCNC(=O)OCC#CI [3-iodo-2-propynyl butylcarbamate (IPBC)] | 27.3 ± 2.2 | 49.3 ± 1.9
CN1CCC(=C2c3ccccc3CCc3cccnc32)CC1 [Azatadine maleate] + CCCCNC(=O)OCC#CI [3-iodo-2-propynyl butylcarbamate (IPBC)] | 99.6 ± 2.4 | 97.43 ± 0.94
C(=C\c1ccccc1)/CN1CCN(C(c2ccccc2)c2ccccc2)CC1 [Cinnarizine] + CCCCNC(=O)OCC#CI [3-iodo-2-propynyl butylcarbamate (IPBC)] | 34.9 ± 5.1 | –
CN(C)CCOC(C)(c1ccccc1)c1ccccn1 (stereo not drawn) [Doxylamine succinate] + CCCCNC(=O)OCC#CI [3-iodo-2-propynyl butylcarbamate (IPBC)] | 86.1 ± 1.3 | 91.1 ± 1.6
CC(=O)c1ccc2c(c1)N(CCCN(C)C)c1ccccc1S2 [Acetopromazine maleate salt] + CCCCNC(=O)OCC#CI [3-iodo-2-propynyl butylcarbamate (IPBC)] | 70.84 ± 0.32 | 91.6 ± 0.94
Oc1c(I)cc(Cl)c2cccnc12 [Clioquinol] + CCCCNC(=O)OCC#CI [3-iodo-2-propynyl butylcarbamate (IPBC)] | 11.4 | 5.66 ± 0.21
CN(C(=O)C(Cl)Cl)c1ccc(OC(=O)c2ccco2)cc1 [Diloxanide furoate] + CCCCNC(=O)OCC#CI [3-iodo-2-propynyl butylcarbamate (IPBC)] | 73.7 ± 0.95 | 85.3 ± 2
Nc1ccn([C@H]2CC[C@@H](CO)O2)c(=O)n1 [Zalcitabine] + CCCCNC(=O)OCC#CI [3-iodo-2-propynyl butylcarbamate (IPBC)] | 101 ± 4.1 | 98.7 ± 3
CN1CCN(CCCN2c3ccccc3Sc3ccc(C(F)(F)F)cc32)CC1 [Trifluoperazine dihydrochloride] + CCCCNC(=O)OCC#CI [3-iodo-2-propynyl butylcarbamate (IPBC)] | 4.45 ± 0.95 | 3.46 ± 0.1
CN(C)CCN1C(=O)c2ccccc2N(C)c2ccccc21 [Dibenzepine hydrochloride] + CCCCNC(=O)OCC#CI [3-iodo-2-propynyl butylcarbamate (IPBC)] | 82.1 ± 2.1 | 94.5 ± 2.8

SMILES | growth yield (40 h) [%] | growth yield (72 h) [%]
COc1ccc(OC)c(C(O)CNC(=O)CN)c1 (stereo not drawn) [Midodrine hydrochloride] + CCCCNC(=O)OCC#CI [3-iodo-2-propynyl butylcarbamate (IPBC)] | 96.1 ± 4.3 | 104 ± 2.1
OC(CNCC(O)C1CCc2cc(F)ccc2O1)C1CCc2cc(F)ccc2O1 (stereo not drawn) [Nebivolol hydrochloride] + CCCCNC(=O)OCC#CI [3-iodo-2-propynyl butylcarbamate (IPBC)] | 11.3 ± 4.3 | –
CC[C@@H](C(N)=O)N1CCCC1=O [Levetiracetam] + CCCCNC(=O)OCC#CI [3-iodo-2-propynyl butylcarbamate (IPBC)] | 86.6 ± 2.1 | 91.2 ± 1.1
CC[C@H](C)[C@H](N)C1=N[C@H](C(=O)N[C@@H](CC(C)C)C(=O)N[C@H](CCC(=O)O)C(=O)N[C@H](C(=O)N[C@H]2CCCCNC(=O)[C@H](CC(N)=O)NC(=O)[C@@H](CC(=O)O)NC(=O)[C@H](Cc3cnc[nH]3)NC(=O)[C@@H](Cc3ccccc3)NC(=O)[C@H]([C@@H](C)CC)NC(=O)[C@@H](CCCN)NC2=O)[C@@H](C)CC)CS1 [Bacitracin] + CCCCNC(=O)OCC#CI [3-iodo-2-propynyl butylcarbamate (IPBC)] | 99.4 ± 10 | 113 ± 2.5
Cc1oncc1C(=O)Nc1ccc(C(F)(F)F)cc1 [Leflunomide] + CCCCNC(=O)OCC#CI [3-iodo-2-propynyl butylcarbamate (IPBC)] | 40.2 ± 3 | –
CCOC(=O)[C@H](CCc1ccccc1)N[C@@H](C)C(=O)N1Cc2ccccc2C[C@H]1C(=O)O [Quinapril hydrochloride] + CCCCNC(=O)OCC#CI [3-iodo-2-propynyl butylcarbamate (IPBC)] | 89.9 ± 4.1 | 93.1 ± 3.4
CN1C(C)(C)CCCC1(C)C [Pempidine] + CCCCNC(=O)OCC#CI [3-iodo-2-propynyl butylcarbamate (IPBC)] | 92.9 ± 8.7 | 90.5 ± 7
Cc1onc(-c2c(Cl)cccc2Cl)c1C(=O)N[C@@H]1C(=O)N2[C@@H]1SC(C)(C)[C@@H]2C(=O)O [Dicloxacillin sodium salt hydrate] + CCCCNC(=O)OCC#CI [3-iodo-2-propynyl butylcarbamate (IPBC)] | 86.9 ± 2.4 | 93.9 ± 3
CN(C)/N=N/c1[nH]cnc1C(N)=O [Dacarbazine] + CCCCNC(=O)OCC#CI [3-iodo-2-propynyl butylcarbamate (IPBC)] | 86.25 ± 0.48 | 93.03 ± 0.52
CC[N+](C)(C)Cc1ccccc1Br [Bretylium tosylate] + CCCCNC(=O)OCC#CI [3-iodo-2-propynyl butylcarbamate (IPBC)] | 101 ± 1.6 | 100.9 ± 0.63
C[N+](C)(C)CCCCCC[N+](C)(C)C [Hexamethonium dibromide dihydrate] + CCCCNC(=O)OCC#CI [3-iodo-2-propynyl butylcarbamate (IPBC)] | 89.1 ± 3.6 | 92.3 ± 3.4
Cc1cc2c(cc1S(N)(=O)=O)S(=O)(=O)CCC2 [Meticrane] + CCCCNC(=O)OCC#CI [3-iodo-2-propynyl butylcarbamate (IPBC)] | 91.8 ± 6.7 | 91.7 ± 3.8
NCCNCCNCCNCCN [Tetraethylenepentamine pentahydrochloride] + CCCCNC(=O)OCC#CI [3-iodo-2-propynyl butylcarbamate (IPBC)] | 86.57 ± 0.79 | 97 ± 1.6
CC(C)c1ccc2oc3nc(N)c(C(=O)O)cc3c(=O)c2c1 [Amlexanox] + CCCCNC(=O)OCC#CI [3-iodo-2-propynyl butylcarbamate (IPBC)] | 80.7 ± 3.8 | 88.4 ± 0.94
CC1(C)S[C@@H]2[C@H](NC(=O)[C@H](NC(=O)N3CCNC3=O)c3ccccc3)C(=O)N2[C@H]1C(=O)O [Azlocillin sodium salt] + CCCCNC(=O)OCC#CI [3-iodo-2-propynyl butylcarbamate (IPBC)] | 103 ± 13 | 99.9 ± 5.8
CCCN1C[C@H](CSC)C[C@@H]2c3cccc4[nH]cc(c34)C[C@H]21 [Pergolide mesylate] + CCCCNC(=O)OCC#CI [3-iodo-2-propynyl butylcarbamate (IPBC)] | 71.95 ± 0.16 | 89.14 ± 0.63
CSc1ccc2c(c1)C(N1CCN(C)CC1)Cc1ccccc1S2 (stereo not drawn) [Methiothepin maleate] + CCCCNC(=O)OCC#CI [3-iodo-2-propynyl butylcarbamate (IPBC)] | 2.06 ± 0.16 | 1.78 ± 0.1
Cc1c(C)c2c(c(C)c1O)CCC(C)(COc1ccc(CC3SC(=O)NC3=O)cc1)O2 (stereo not drawn) [Troglitazone] + CCCCNC(=O)OCC#CI [3-iodo-2-propynyl butylcarbamate (IPBC)] | 100 ± 3.2 | 94.2 ± 2.5
Cc1cc(C(C)(C)C)c(O)c(C)c1CC1=NCCN1 [Oxymetazoline hydrochloride] + CCCCNC(=O)OCC#CI [3-iodo-2-propynyl butylcarbamate (IPBC)] | 83.5 ± 2.2 | 94.7 ± 1.8
